Patent publication US11299538B2, “Anti-IGF antibodies” (Boehringer Ingelheim International GmbH, priority 2008, dated 2022)

Assays:
[1] = target: T1, Mouse IGF-1 (Mus musculus, UniProt P05017); test: direct immunosorbent assay (ELISA) binding titration; conditions: FIG. 1B
T1 construct: Insulin-like growth factor-1 (IGF-1; a 70 amino-acid polypeptide); purchased R&D Systems 791-MG
Description: (§1) Fully human IgG1 antibodies that bound with high affinity to IGF-1 are also tested for binding to human IGF-1 in direct immunosorbent assays (ELISA). Assays are performed by coating human IGF-1 (R&D Systems, No. 291-G1) to 96-well Maxisorb plates at a concentration of 0.5 μg/ml overnight at 4° C. (100 μl/well). Coating buffer alone is used as a control for unspecific binding. Wells are then washed once with washing buffer (1×TBS-T) and residual binding sites are blocked with 200 μl blocking buffer for 1 hour at room temperature on an orbital shaker followed by a further wash cycle. Serial three-fold dilutions of each test antibody in blocking buffer are prepared directly on the coated plates. Typical concentrations used are 50, 16.6, 5.6, 1.8, 0.6, 0.2, and 0.07 ng/ml. Blocking buffer alone is used as a positive control. The plates are then incubated for 2 hours at room temperature with agitation. After three wash cycles 100 μl/well of HRPO-conjugated anti-human IgG secondary reagent (Jackson ImmunoResearch Inc.) diluted in blocking buffer is added to all wells. After 2 hours incubation at room temperature with agitation the plates are washed three-times and 100 μl/well of TMB substrate solution (equal amounts of solution A and B) are pipetted into all wells. The plates are incubated for 10-20 min at RT with agitation and then the reaction is stopped by addition of 100 μl/well 1 M phosphoric acid. The absorbance is measured at a wavelength of 450 nm (reference 650 nm).
(§2) Binding of the fully human IGF-1 binding IgG1 antibodies to mouse IGF-1 (R&D Systems, No. 791-MG), rat IGF-1 (IBT, No. RU100), human IGF-2 (GroPep, No. FM001), mouse IGF-2 (R&D Systems, No. 792-MG), rat IGF-2 (IBT, No. AAU100), and human insulin (Roche) is also tested as described above for human IGF-1 (except that the concentration of human insulin used for coating is 3 μg/ml).

[2] = target: T2, Rat IGF-1 (Rattus norvegicus, UniProt P08025); test: as above; conditions: FIG. 1C
T2 construct: Insulin-like growth factor-1 (IGF-1; a 70 amino-acid polypeptide)
Description: as §1, §2

[3] = target: T3, Rat IGF-2 (Rattus norvegicus, UniProt P01346); test: as above; conditions: FIG. 1F
T3 construct: insulin-like growth factor-2 (IGF-2; a 67 amino-acid polypeptide)
Description: as §1, §2

[4] = target: T4, Human IGF-2 (Homo sapiens, UniProt P01344); test: as above; conditions: FIG. 1D
T4 construct: insulin-like growth factor-2 (IGF-2; a 67 amino-acid polypeptide)
Description: as §1, §2

[5] = target: T5, Mouse IGF-2 (Mus musculus, UniProt P09535); test: as above; conditions: murine IGF-2; FIG. 1E
T5 construct: insulin-like growth factor-2 (IGF-2; a 67 amino-acid polypeptide)
Description: as §1, §2

[6] = target: T6, human insulin (Homo sapiens, UniProt P01308); test: as above; conditions: highest concentration tested, 50 ng/ml; FIG. 1G
T6 construct: purchased Roche
Description: as §1, §2

[7] = tested on: human IGF-1R phosphorylation; test: cell based IGF-1R phosphorylation ELISA
Description: Mouse fibroblast cell lines recombinantly expressing human IGF-1R or human IR-A are maintained in DMEM supplemented with 10% heat inactivated FCS, 1 mM sodium pyrovate, 0.075% sodium bicarbonate, MEM NEAA, and 0.3 μg/ml puromycin at 37° C. and 5% CO2 in a humidified incubator. Cells are detached with trypsin/EDTA, resuspended in growth medium and diluted to 100,000 cells/mL. 100 μL (10,000 cells) are seeded in wells of a sterile 96-well plate and incubated overnight in a humidified incubator at 37° C. and 5% CO2. The cells are then starved with 100 μL/well assay medium (DMEM supplemented with 0.5% heat inactivated FCS; 1 mM sodium pyrovate, 0.075% sodium bicarbonate, and MEM NEAA) and incubated overnight as before. A range of test antibody concentrations prepared in assay medium is added to the cells, all samples are prepared in triplicate to determine the standard deviation for each assay condition. An IGF-1R antibody, αIR-3 (Calbiochem, No. GR11L) is also tested in these experiments. IGF-1 (20 ng/mL final concentration), IGF-2 (100 ng/mL final concentration), or human serum (20% final concentration) is then added and the plates incubated for 30 min in the humidified incubator. Cells are fixed by replacing the growth medium with 4% formaldehyde in PBS for 20 min at RT. After two wash cycles with 300 μL/well wash buffer (PBS with 0.1% Triton X-100) for 5 min (with agitation) the cells are quenched with 100 μL/well 1.2 wt % hydrogen peroxide in wash buffer for 30 minutes at RT. Cells are washed again with 300 μL/well washing buffer and blocked with 100 μL/well blocking buffer (5% BSA in wash buffer) for 60 min at RT with agitation. Blocking buffer is removed and 50 μl/well primary phopho-IGF-I receptor β (tyr1135/1136)/insulin receptor β (tyr1150/1151) antibody (Cell Signaling, No. 3024) diluted 1:1000 in blocking buffer is added. Plates are incubated overnight at 4° C. with agitation then washed three times as above and 50 μL/well anti-rabbit IgG goat immunoglobulins conjugated with horseradish peroxidase (Dako, No. P0448) diluted 1:500 in blocking buffer is added. After a 60 min incubation at RT with agitation the wells are washed twice with washing buffer as above and once with 300 μL PBS. 100 μL/well TMB substrate solution (Bender MedSystems, No. BMS406.1000) is added to the wells and incubated for 10 min with agitation, following this the reaction is stopped by adding 100 μL/well 1 M phosphoric acid and the absorbance read using a photometer (OD 450 nm, OD 650 nm as reference). Inhibition of IGF-1R or IR-A phosphorylation IC50 values are determined by graphical analysis. […]
The level of IGF bioactivity in human serum or plasma samples can also be measured using the IGF-1R phosphorylation cell based ELISA.

[8] = stimulus Human Serum Pooled from Healthy Donors (20%)

T3 sequence (P01346 25-91 limits assumed): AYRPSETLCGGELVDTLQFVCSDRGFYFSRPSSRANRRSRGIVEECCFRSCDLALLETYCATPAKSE
T1 sequence (P05017 49-118 limits assumed): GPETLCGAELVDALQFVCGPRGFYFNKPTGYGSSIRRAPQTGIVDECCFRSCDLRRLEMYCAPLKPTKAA
T5 sequence (P09535 25-91 limits assumed): as the sequence (P01346 25-91 limits assumed) above, with R3G, S5G counted along it
T2 sequence (P08025 49-118 limits assumed): as the sequence (P05017 49-118 limits assumed) above, with A69S counted along it
T6 sequence (P01308 25-54 limits assumed): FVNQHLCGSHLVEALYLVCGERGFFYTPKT
T6 sequence (P01308 90-110 limits assumed): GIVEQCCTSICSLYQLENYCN
T4 sequence (P01344 25-91 limits assumed): as the sequence (P01346 25-91 limits assumed) above, with S22G, S32A, A35V, N36S counted along it

B1: 60833: fully human IgG1/Igλ anti-IGF antibody; heavy chain SEQ ID NO:39, light chain SEQ ID NO:40 (antibody, listed as Homo sapiens)
heavy: QVELVESGGGLVQPGGSLRLSCAASGFTFTSYWMSWVRQAPGKGLELVSSITSYGSFTYYADSVKGRFTISRDNSKNTLYLQMNSLRAEDTAVYYCARNMYTHFDSWGQGTLVTVSS[human IgG1 constant region left out here]
light: DIVLTQPPSVSGAPGQRVTISCSGSSSNIGSNSVSWYQQLPGTAPKLLIYDNSKRPSGVPDRFSGSKSGTSASLAITGLQSEDEADYYCQSRDTYGYYWVFGGGTKLTVLGQPKAAPSVTLFPPSSEELQANKATLVCLISDFYPGAVTVAWKGDSSPVKAGVETTTPSKQSNNKYAASSYLSLTPEQWKSHRSYSCQVTHEGSTVEKTVAPTECS
- ELISA binding [1]: comparable cross-reactive binding
- ELISA binding [2]: comparable cross-reactive binding
- ELISA binding [3]: comparable cross-reactive binding
- ELISA binding [4]: comparable cross-reactive binding
- ELISA binding [5]: comparable cross-reactive binding
- ELISA reactivity to human insulin [6]: no reactivity
- % Remaining Phosphorylation at 15 μg/mL (100 nM) Inhibitor [7, 8]: 5%
- IC50 [7, 8]: 0.25 µg/mL
- % Remaining Phosphorylation at 15 μg/mL (100 nM) Inhibitor ([7]; stimulus IGF-1 (20 ng/mL)): 0%
- % Remaining Phosphorylation at 15 μg/mL (100 nM) Inhibitor ([7]; stimulus IGF-2 (100 ng/mL)): 7%
